Reference: PubChem BioAssay AID1347071 (National Center for Advancing Translational Sciences (NCATS), 2019)
Among all 410,000 compounds or so, about 260 (0.063%) were called active. The shares of active, inactive and inconclusive entries below differ from those in the screen. The call rests on the fitted dose curve; in most records, active means well fitted activation curve with a large enough effect; inconclusive means small, poorly fitted or top-dose-only effect; inactive means no such curve, though single readings can be large or run the other way. Potencies of inconclusive entries are left out as doubtful fits.

Assay: qHTS for compounds that reverse cellular toxicity of Amyloid beta (A-beta) peptide in yeast: Primary Screen; further: nearly all actives have a fitted effect of over 55% in size
Conditions: yeast expressing A-beta42, growth rescue, OD600, 48 h; growth rescue: at 46.1 µM (top of the series), 0% DMSO, 100% iron-clioquinol control
Procedure, shortened: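 Yeast A-beta toxicity model in growth medium with pinned compounds, 48 h at 30 C; growth read as absorbance at 600 nm. Normalized to FeCl3/clioquinol equimolar mix (positive) and DMSO (negative).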
Potency means the concentration at half of the fitted maximal effect; tags describe the fitted curve by direction and shape.

| Compound | Potency | growth rescue |
| --- | --- | --- |
| CCOC(=O)c1nc(C)n(-c2ccc(Cl)cc2Cl)n1 | inconclusive [activator, partial curve, poor fit] | – |
| O=C(COc1ccccc1)NNC(=S)NC(=O)c1ccccc1 | inconclusive [activator, full curve, poor fit] | – |
| O=C(CCSCc1ccccc1Cl)NCc1ccc(F)cc1Cl | inconclusive [activator, partial curve, poor fit] | – |
| CCOC(=O)c1ccc(NC(=O)c2ccccc2N(C)S(=O)(=O)c2ccccc2)cc1 | – | inactive: -15.2% |
| Cc1nc2ccccc2n1CCc1nc2c3ccccc3nc(SCc3ccc(C#N)cc3)n2n1 | – | inactive: -1.13% |
| CCN=c1scc(-c2ccco2)n1/N=C/c1ccc(OC)c(O)c1 | – | inactive: -64% |
| OC(COc1ccccc1)CN1CCCC1 (stereo not given) | – | inactive: 4.22% |
| CCOc1ccccc1CNC(=O)c1cn(C)c(=O)c2c1c1ccccc1n2C | – | inactive: -1.73% |
| Cc1ccc(Nc2c(-c3ccccn3)nc3cc(C)ccn23)cc1 | inconclusive [activator, single point] | – |
| Cc1cc(Nc2cccc(C(F)(F)F)c2)nc2ccc(NC(=O)c3cccc(Cl)c3)cc12 | inconclusive [activator, partial curve, poor fit] | – |
| COc1cccc(NC(=S)NN=C2CCC(C(C)(C)C)CC2)c1 (stereo not given) | inconclusive [activator, partial curve, poor fit] | – |
| CCOC(=O)N1CCN(C(=O)c2ccc(CNS(=O)(=O)c3ccc(C)cc3)cc2)CC1 | inconclusive [activator, partial curve, poor fit] | – |
| CCCNC(=S)N1CCC(C(=O)c2ccc(Cl)cc2)CC1 | inconclusive [activator, single point] | – |
| COC(=O)c1cc(C#N)c(N2CCOCC2)nc1C | inconclusive [activator, single point] | – |
| COc1ccc(N2CCC(CNC(=S)Nc3c(C)cc(C)cc3C)C2)cc1 (stereo not given) | inconclusive [activator, full curve, poor fit] | – |
| CCOC(=O)N1CCC(NC(=O)c2ccc3c(c2)sc2nc(-c4ccccc4)cn23)CC1 | – | inactive: -6.88% |
| CC(C)c1ccc(NC(=S)NC2CCCCCC2)cc1 | inconclusive [activator, full curve, poor fit] | – |
| O=[N+]([O-])c1ccc(O)c(/C=N/NC(=S)Nc2ccc(Cl)cc2Cl)c1 | – | inactive: 25.4% |
| Cc1ccc(/C=N/n2cc(-c3ccccc3)[nH]c2=S)s1 | active: 4.47 µM | – |
| C=CCNC(=S)NCc1ccccc1 | inconclusive [activator, partial curve, poor fit] | – |
| COc1ccc2c(c1)C(=O)N(Cc1ccccc1)C(=O)C2(C)C | inconclusive [activator, single point] | – |
| Cc1cc2c([nH]c3ccccc32)c2c1OC(C)(C)C=C2 | – | inactive: -88.4% |
| O=C(CCc1ccccc1)NNC(=S)NC(=O)c1ccc(Cl)cc1 | inconclusive [activator, partial curve, poor fit] | – |

| Compound | Potency | growth rescue |
| --- | --- | --- |
| O=C(O)C1C2C=CC(CC2)C1C(=O)O (stereo not given) | inconclusive [activator, partial curve] | – |
| O=c1cnn([C@@H]2O[C@H](CO)[C@@H](O)[C@H]2O)c(=O)[nH]1 | inconclusive [activator, partial curve, poor fit] | – |
| S=C(Nc1ccc(Nc2ccccc2)cc1)Nc1ccccn1 | inconclusive [activator, full curve, poor fit] | – |
| CCOC(=O)c1c(NC(=O)c2cccnc2Cl)sc(C(=O)N(C)C)c1C | – | inactive: -36.1% |
| COc1ccccc1NC(=O)Nc1nc(CC(=O)NCc2ccccn2)cs1 | – | inactive: 3.76% |
| CN(CC(=O)Nc1ccc(Cl)c(C(F)(F)F)c1)C(=O)C1CCC1 | inconclusive [activator, partial curve, poor fit] | – |
| CCn1c(/C=C2\C(=O)Nc3ccccc32)nc2ccccc2c1=O | – | inactive: -10.8% |
| COc1ccc(C(=O)NNC(=S)NC(=O)c2ccc(OC)cc2)cc1 | inconclusive [activator, full curve] | – |
| NNC(=O)COc1ccc2oc3c(c2c1)CCCC3 | – | inactive: -23.6% |
| O=C(Nc1ccc2c(c1)OCCO2)c1ccc(Br)cc1 | inconclusive [activator, single point] | – |
| Cc1cccc(NC(=S)N2CCN(c3ccc(F)cc3)CC2)c1 | inconclusive [activator, single point] | – |
| S=C1NCN(Cc2ccco2)CN1Cc1ccco1 | inconclusive [activator, single point] | – |
| CCCc1cc(=O)[nH]c(-n2[nH]c3c(c2=O)CCCC3)n1 | inconclusive [activator, single point] | – |
| CCCC(=O)NC(=S)Nc1ccc(N2CCN(C(=O)c3cccs3)CC2)cc1 | inconclusive [activator, single point] | – |
| Cn1cc(Cl)c(/C=C(\C#N)S(=O)(=O)c2ccccc2)n1 | inconclusive [activator, partial curve, poor fit] | – |
| Cc1cccc(Cn2c(C)nc3ccc([N+](=O)[O-])cc3c2=O)c1 | inconclusive [activator, partial curve, poor fit] | – |
| Cc1ccccc1C(=O)N(Cc1sccc1C)C1CCS(=O)(=O)C1 (stereo not given) | – | inactive: -9.52% |
| Cc1ccc(C2C(C(N)=S)=C(N)OC3=C2C(=O)CC(C)(C)C3)cc1 (stereo not given) | – | inactive: 7.49% |
| CCC(C(=O)Nc1ccccc1-c1ccccc1)c1ccccc1 (stereo not given) | inconclusive [activator, partial curve, poor fit] | – |
| Cc1nc(C)c(-c2csc(Nc3ccccn3)n2)s1 | inconclusive [activator, partial curve, poor fit] | – |
| OC(c1ccc2ccccc2n1)c1c(Cl)cccc1Cl (stereo not given) | inconclusive [activator, partial curve, poor fit] | – |
| Cc1cccc(-n2ncc3c2CCCC3NC(=O)CCCN2CCCCC2=O)c1C (stereo not given) | inconclusive [activator, single point] | – |
